Source: PubChem BioAssay AID2675 (National Center for Advancing Translational Sciences (NCATS), 2010)
In all, about 280,000 compounds went through this assay and about 100 (0.036%) were called active. Inconclusive means that the source gave no clear call. Such entries were picked first, then a sample of the others. The call rests on the fitted dose curve; in most records, active means well fitted inhibition curve with a large enough effect in the signal ratio, with a control signal flat (not every such curve was filed as active); inconclusive means small, poorly fitted or top-dose-only effect, or effect the other way, or a change in a side signal; inactive means no such curve, though single readings can be large or run the other way; the % refers to the signal ratio. Potencies of inconclusive entries are doubtful fits and often do not repeat. “Side channel” marks fits to a control or component signal instead of the main read-out.

Each compound was assayed against Muscleblind-like protein 1 (Homo sapiens) (UniProt Q9NR56) (assay: qHTS Assay for Inhibitors of MBNL1-poly(CUG) RNA binding). Details: TR-FRET MBNL1-His/biotin-(CUG)12 binding, 665/545 ratio; series mostly up to 57.5 µM.
In short: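 His-tagged MBNL1 binding to biotinylated (CUG)12 RNA was measured by TR-FRET using terbium anti-His antibody (0.055 ng/ul final) and streptavidin-XL665 (5 nM final). Compounds were titrated 92 nM to 58 uM; 60 min at room temperature.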
Potency means the concentration at half of the fitted maximal effect; tags describe the fitted curve by direction and shape or compound fluorescence and quenching.

Sequence of UniProt Q9NR56 (Q9NR56 whole entry, looked up): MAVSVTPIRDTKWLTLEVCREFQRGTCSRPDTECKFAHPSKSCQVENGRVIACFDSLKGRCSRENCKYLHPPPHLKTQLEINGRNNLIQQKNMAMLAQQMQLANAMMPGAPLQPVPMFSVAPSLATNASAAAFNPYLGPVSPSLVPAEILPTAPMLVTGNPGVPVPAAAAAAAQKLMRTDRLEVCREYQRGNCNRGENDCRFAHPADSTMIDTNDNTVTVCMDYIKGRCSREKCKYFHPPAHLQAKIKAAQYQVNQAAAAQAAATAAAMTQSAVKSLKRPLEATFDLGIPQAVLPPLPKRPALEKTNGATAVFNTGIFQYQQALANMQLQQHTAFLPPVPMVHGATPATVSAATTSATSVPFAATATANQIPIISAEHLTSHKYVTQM

Structure (SMILES)	Potency
O=C(NNC(=O)c1cc2ccccc2oc1=O)c1ccccc1[N+](=O)[O-]	inconclusive: 12.6 µM [quencher, side channel, partial curve]
C/C(=N\NC(=O)c1ccco1)c1ccc(C(=O)O)s1	inconclusive: 22.4 µM [quencher, side channel, partial curve]
CNC(=O)/C(C#N)=C/c1c(N(Cc2ccccc2)Cc2ccccc2)nc2ccccn2c1=O	inconclusive: 17.8 µM [quencher, side channel, partial curve]
Cc1coc2c(C)c3oc(=O)c(CCC(=O)N[C@@H](C)C(=O)N[C@@H](Cc4ccccc4)C(=O)O)c(C)c3cc12	inactive
CCN(CC)S(=O)(=O)c1ccc(O)c(NS(=O)(=O)c2ccccc2F)c1	inactive
CC1=CC(=Nc2c(C)n(C)n(-c3ccccc3)c2=O)C=CC1=O	inconclusive: 14.1 µM [quencher, side channel, partial curve]
Cc1ccc(-c2csc3nnc(SCC(=O)Nc4nsc(-c5ccccc5)n4)n23)cc1	inactive
COC(=O)Nc1cc([N+](=O)[O-])ccc1OC	inconclusive: 22.4 µM [quencher, side channel, single point]
Cc1ccc(CNS(=O)(=O)c2cc(F)ccc2CN2C(=O)c3cccnc3C2=O)o1	inconclusive: 15.8 µM [quencher, side channel, partial curve]
COc1ccccc1C(=O)Nc1ccnn1C1CCN(Cc2ccccc2OCCO)CC1	inactive
Cc1ccc(N/C=C/C(=O)c2ccco2)c(O)c1	inconclusive: 17.8 µM [quencher, side channel, partial curve]
O=C(N/N=C/c1cccc([N+](=O)[O-])c1)C(=O)N1CCCCCC1	inconclusive: 15.8 µM [quencher, partial curve]
CCCN1CCN(CCCNC(=O)c2cc3c(=O)[nH]c4ccc(C)cc4c3s2)CC1	inconclusive: 15.8 µM [quencher, side channel, partial curve]
COc1ccc(C(=O)N2CCC(C(=O)c3ccc(F)cc3)CC2)cc1	inconclusive: 63.1 µM [inhibitor, single point]
Cc1ccc(C(=O)Nc2ccc3ncccc3c2)cc1	inactive
COc1ccc(CNC(=O)C(C)N(Cc2ccccc2OC)C(=O)c2snc(C(N)=O)c2N)cc1 (stereo not given)	inactive
Cc1ccc(C(=O)N2CCN(c3ccc([N+](=O)[O-])c(NCc4ccco4)c3)CC2)cc1	inconclusive: 12.6 µM [quencher, side channel, partial curve]
Cc1c(NC(=O)Nc2ccccc2[N+](=O)[O-])c(=O)n(-c2ccccc2)n1C	inconclusive: 22.4 µM [quencher, side channel, partial curve]
Cc1cc(NC(=O)c2ccccc2[N+](=O)[O-])ccc1Br	inconclusive: 15.8 µM [quencher, side channel, partial curve]
COC(=O)COc1cccc(/C=N/NC(=O)CCSc2ccccc2)c1	inconclusive: 39.8 µM [quencher, side channel, single point]

Structure (SMILES)	Potency
CCOC(=O)C1=C(c2ccccc2)NC(=O)NC1c1cc(OC)c(O)c([N+](=O)[O-])c1 (stereo not given)	inconclusive: 14.1 µM [quencher, side channel, partial curve]
Cc1cc(C)c(S(=O)(=O)/N=C2\C=C(Nc3ccc(C(=O)O)cc3)C(=O)c3ccccc32)c(C)c1	inconclusive: 14.1 µM [quencher, side channel, partial curve]
c1ccc(-c2cc3nccc(-c4ccccn4)n3n2)cc1	inconclusive: 39.8 µM [quencher, side channel, partial curve, poor fit]
COc1cc(/C=C(\NC(=O)c2ccccc2)C(=O)Nc2cccc(O)c2)c([N+](=O)[O-])cc1OC	inconclusive: 28.2 µM [quencher, side channel, partial curve]
O=c1oc2c(CN3CCCCC3)c(O)ccc2cc1-c1nc2ccccc2[nH]1	inconclusive: 7.08 µM [quencher, side channel, partial curve]
CCOC(=O)N1CCN(c2c(N3CCc4ccccc43)c(=O)c2=O)CC1	inconclusive: 12.6 µM [quencher, side channel, partial curve]
CC1=C(C(N)=O)C(c2cccnc2)n2nc(SCc3ccccc3Cl)nc2N1 (stereo not given)	active: 25.1 µM
CCOc1ccc(NC(=O)Nc2ccc3nsnc3c2)cc1	inconclusive: 7.94 µM [quencher, side channel, full curve, poor fit]
O=[N+]([O-])c1ccc(CNc2cccc(Cl)c2)s1	inconclusive: 28.2 µM [quencher, side channel, partial curve]
CC(=O)Nc1ccc(S(=O)(=O)Nc2ccccc2C(=O)N2CCCCCC2)cc1	inactive
Oc1ccc(N=C/C=C/c2cccc(Br)c2)cc1-c1nc2ccccc2s1	inactive
COc1ccc(-n2cc(CNC(C)c3ccncn3)c(-c3cccc(F)c3)n2)cc1 (stereo not given)	inconclusive: 14.1 µM [quencher, side channel, partial curve]
COc1ccc(C(=O)N/C(=C\c2cn(S(=O)(=O)N(C)C)c3ccccc23)C(=O)NCCCN2CCOCC2)cc1	inconclusive: 39.8 µM [quencher, side channel, single point]
Cc1ccc(C(=O)N/C(=C/c2cn(-c3ccccc3)nc2-c2ccccc2)C(=O)O)cc1	inconclusive: 79.4 µM [inhibitor, single point]
CCS(=O)(=O)C1=NN2C(=N)/C(=C\c3ccc(SCc4ccco4)o3)C(=O)N=C2S1	inconclusive: 25.1 µM [quencher, side channel, single point]
CCOc1c(C)cc2[nH]c(CCC(=O)O)nc2c1C	inactive
Cn1c(SCC(=O)N2CCc3ccccc3C2)nnc1-c1ccncc1	inconclusive: 10 µM [quencher, side channel, partial curve]
Cc1nn(Cc2ccc(C(=O)Nc3ccccc3C(F)(F)F)o2)c(C)c1Br	inactive
NC1=NC(=O)/C(=C/c2cn(CCC(=O)O)nc2-c2ccc(F)cc2)S1	inconclusive: 15.8 µM [quencher, side channel, partial curve]
Cc1nnc(SCc2cc(=O)oc3ccc4ccccc4c23)n1Cc1ccccc1	inconclusive: 22.4 µM [activator, single point]

Structure (SMILES)	Potency
S=C(Nc1ccccn1)Nc1ccccc1Cl	inactive
Cc1cc(C)nc(Sc2ccc(C=O)cc2[N+](=O)[O-])n1	inconclusive: 12.6 µM [quencher, side channel, partial curve]
COc1ccc(C2=CC(=O)CC(c3ccccc3)C2)cc1 (stereo not given)	inconclusive: 20 µM [quencher, side channel, partial curve]
COC(=O)c1ccc(C)c(NC(=O)c2ccc(Cl)c([N+](=O)[O-])c2)c1	inconclusive: 12.6 µM [quencher, side channel, partial curve]
Cc1nccn1CCc1nc(N)nc(N)n1	inconclusive: 7.08 µM [quencher, side channel, single point]
COc1ccc(/C=N\NC(=O)c2ccc(=O)[nH]n2)cc1O	inconclusive: 14.1 µM [quencher, side channel, partial curve]
CCN1CCN(S(=O)(=O)c2cccc([N+](=O)[O-])c2)CC1	inconclusive: 5.62 µM [quencher, side channel, full curve, poor fit]
Cc1[nH][nH]c(=O)c1N=Nc1ccccc1	inconclusive: 28.2 µM [quencher, side channel, single point]
CC1(C)CC(=O)C=C(NNC(=O)C2CCCCC2)C1	inconclusive: 11.2 µM [fluorescent, side channel, partial curve, poor fit]
COc1ccc(/C=C/c2c([N+](=O)[O-])c(=O)n(C)c(=O)n2C)c(OC)c1	inconclusive: 20 µM [quencher, side channel, single point]
C[n+]1c2n(c3ccccc31)N=C(c1ccc(Br)cc1)CS2	inconclusive: 7.08 µM [quencher, side channel, partial curve, poor fit]
Clc1ccc(/C=N/Nc2ccccn2)cc1	inconclusive: 25.1 µM [quencher, side channel, single point]
Cc1ccc(C(C)C)cc1S(=O)(=O)NCc1cccnc1	inactive
CCOC(=O)c1nc(C)n(-c2ccc(Cl)cc2Cl)n1	inconclusive: 8.91 µM [quencher, side channel, single point]
COc1ccc(C2=NN(C(=O)CSc3nc4ncc(Cl)cc4[nH]3)C(c3ccco3)C2)cc1 (stereo not given)	inactive
O=C(COC(=O)/C=C/c1ccco1)NCc1ccccc1	inconclusive: 11.2 µM [quencher, side channel, partial curve]
CCOc1ccc(N=Cc2c(O)n(-c3cccc(C)n3)c(=O)c3ccccc23)cc1	inconclusive: 15.8 µM [quencher, side channel, partial curve]
O=C(CC(=O)c1ccccc1)Nc1cc(C(F)(F)F)ccc1Cl	inactive
Clc1ccccc1/C=C/c1nc(-c2ccccn2)no1	inconclusive: 31.6 µM [quencher, side channel, partial curve]
COc1ccccc1C1OC(c2cccc([N+](=O)[O-])c2)=NN1C(C)=O (stereo not given)	inconclusive: 31.6 µM [quencher, side channel, partial curve]
